We go through two molecules from article PMC9918506, “Structural insights into pathogenic mechanism of hypohidrotic ectodermal dysplasia caused by ectodysplasin A variants” (Nature Communications, 2023).

Chains of the proteins cited; added tags and fusions are not shown. Lines headed by an entry give the natural chain unless they say otherwise; changes in a name come on top. A line that says so, or that is headed by a name, gives the form on record, which may keep a tag or linker. Residues count along the entry.
EDA·A1 TNF homology domain (EDA·A1THD, residues 233–391), wild type (Q92838, residues 233-391): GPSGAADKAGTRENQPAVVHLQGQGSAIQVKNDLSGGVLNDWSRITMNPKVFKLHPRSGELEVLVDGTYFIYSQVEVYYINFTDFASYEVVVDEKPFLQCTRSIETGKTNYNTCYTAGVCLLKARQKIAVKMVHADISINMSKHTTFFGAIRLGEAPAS
EDA·A1THD (residues 233–391) R276C (Q92838, form named): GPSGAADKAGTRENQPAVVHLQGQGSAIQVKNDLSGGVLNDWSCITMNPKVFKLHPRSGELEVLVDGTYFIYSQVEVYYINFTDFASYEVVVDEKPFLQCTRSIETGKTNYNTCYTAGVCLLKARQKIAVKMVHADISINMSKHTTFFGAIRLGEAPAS
EDA·A1THD (residues 233–391) D265G (Q92838, form named): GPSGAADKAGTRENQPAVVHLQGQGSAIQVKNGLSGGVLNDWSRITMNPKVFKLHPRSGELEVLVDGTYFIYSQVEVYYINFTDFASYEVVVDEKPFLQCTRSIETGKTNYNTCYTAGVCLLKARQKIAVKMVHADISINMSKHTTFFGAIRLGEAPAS
EDA·A1THD (residues 233–391) A259E (Q92838, form named): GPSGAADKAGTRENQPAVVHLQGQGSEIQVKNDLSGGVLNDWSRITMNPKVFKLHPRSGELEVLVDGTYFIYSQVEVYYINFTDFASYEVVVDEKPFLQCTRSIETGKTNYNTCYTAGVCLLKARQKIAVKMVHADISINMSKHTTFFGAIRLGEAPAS
human soluble Flag-EDA·A1THD (amino acids 233–391) D265G (Q92838, form named): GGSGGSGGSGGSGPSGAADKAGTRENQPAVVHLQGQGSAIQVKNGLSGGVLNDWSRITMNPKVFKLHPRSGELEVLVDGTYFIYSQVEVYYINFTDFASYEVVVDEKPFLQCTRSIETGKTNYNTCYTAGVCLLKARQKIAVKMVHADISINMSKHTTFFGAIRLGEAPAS
human soluble Flag-EDA·A1THD (amino acids 233–391) A259E (Q92838, form named): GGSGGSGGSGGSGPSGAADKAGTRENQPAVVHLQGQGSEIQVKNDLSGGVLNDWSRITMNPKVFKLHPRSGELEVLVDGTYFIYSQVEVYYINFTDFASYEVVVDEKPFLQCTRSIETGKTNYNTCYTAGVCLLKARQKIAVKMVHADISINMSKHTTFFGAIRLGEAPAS
human soluble Flag-EDA·A1THD (amino acids 233–391) R276C (Q92838, form named): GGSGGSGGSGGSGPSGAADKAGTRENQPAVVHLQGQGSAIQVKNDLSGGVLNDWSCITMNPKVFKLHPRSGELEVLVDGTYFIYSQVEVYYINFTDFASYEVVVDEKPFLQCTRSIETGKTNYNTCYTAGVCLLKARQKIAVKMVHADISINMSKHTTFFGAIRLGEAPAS
human soluble Flag-EDA·A1THD (amino acids 233–391), wild type (Q92838, form named): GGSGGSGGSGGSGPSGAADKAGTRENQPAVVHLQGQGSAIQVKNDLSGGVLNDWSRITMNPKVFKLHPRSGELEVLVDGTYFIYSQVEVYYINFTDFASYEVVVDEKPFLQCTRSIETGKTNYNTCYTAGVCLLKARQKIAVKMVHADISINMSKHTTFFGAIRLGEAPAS

The target in assay [1] is EDA·A1THD (residues 233–391) R276C (human, UniProt Q92838 233-391, R276C). Briefly: SPR; WT and mutant EDA·A1THD immobilised on CM5 chips, EDAR_(CRDS) serially diluted and injected; Biacore 8K; 10 mM HEPES pH 7.5, 150 mM NaCl, 3 mM EDTA, 25 °C; steady-state analysis at equilibrium; both purified. For orientation: Surface plasmon resonance follows binding to a sensor surface in real time, without labels.

Assay [2] has as its target EDA·A1THD (residues 233–391) D265G (human) (UniProt Q92838). The description is as above.
The target in assay [3] is EDA·A1THD (residues 233–391) A259E (human) (UniProt Q92838). Described as above.
Assay [4] concerns the target EDA·A1 TNF homology domain (EDA·A1THD, residues 233–391), wild type (human) (UniProt Q92838). The experiment in a line: crystal structure; EDA·A1THD and EDAR_(CRDS) mixed at a molar ratio of 1:1; crystals in 25% PEG-6000, 0.1 M BICINE pH 9.0, 4 °C; 2.8 Å; both purified.
The target is the same in assay [5]. Briefly: SEC; gel filtration of purified EDA·A1THD and EDAR_(CRDS); comigration; both purified. On the technique in general: SEC sorts molecules by how far they enter the pores of the column.
In assay [6] the target is human soluble Flag-EDA·A1THD (amino acids 233–391) D265G (human) (UniProt Q92838). The experiment in a line: pull-down; supernatant of HEK293T cells with Flag-EDA·A1THD (WT or mutant) incubated with purified EDAR_(CRDS)-MBP at 4 °C, then Flag beads; 25 mM Tris pH 7.5, 150 mM NaCl, 0.5% NP40; immunoblot with anti-MBP and anti-Flag; human and mouse proteins; only the binder purified. In general terms: Immunoblotting shows a protein as a band on a membrane.

Assay [7] addresses human soluble Flag-EDA·A1THD (amino acids 233–391) A259E (human) (UniProt Q92838). The assay is described as above.
Assay [8] has as its target human soluble Flag-EDA·A1THD (amino acids 233–391) R276C (human) (UniProt Q92838). The description is as above.
Assay [9] addresses human soluble Flag-EDA·A1THD (amino acids 233–391), wild type (human) (UniProt Q92838). The description is as above.

No constants are given. Whether binding was seen depends on the method and setting. For part of these data: Binding seen in cells or lysates may run through a third protein. Some results given as binding are weak or reduced against the parent protein; the word gives no strength. Tags and fused reporters may be left off the sequences shown.

B1: EDAR cysteine-rich domains (EDAR_(CRDS), residues 30–150), MBP tag removed (domain or fragment, human)
chain: GGSGGSGGSGGSNCGENEYYNQTTGLCQECPPCGPGEEPYLSCGYGTKDEDYGCVPCPAEKFSKGGYQICRRHKDCEGFFRATVLTPGDMENDAECGPCLPGYYMLENRPRNIYGMVCYSCLLAPPNTKECVG
notes: EDAR (ectodysplasin A receptor), human, cysteine-rich domains CRD1-CRD3, residues 30-150; Construct: EDAR signal peptide (residues 1-28), MBP, 3C site, linker, EDAR 30-150; That the linker stays on the protein after 3C cleavage follows only from the order in which the methods list the elements; also called ectodomains of EDAR; source: Hi5 insect cells (baculovirus), secreted, purified (amylose, …)
As to B1, the binding result in assay [1] is “binds”; in assay [2], “no binding”; in assay [3], “no binding”; in assay [4], “binds”; in assay [5] it was “binds”.

B2: human EDAR_(CRDS)-MBP (residues 30–150 with MBP tag) (domain or fragment, UniProt Q9UNE0 30-150)
chain: GGSGGSGGSGGSNCGENEYYNQTTGLCQECPPCGPGEEPYLSCGYGTKDEDYGCVPCPAEKFSKGGYQICRRHKDCEGFFRATVLTPGDMENDAECGPCLPGYYMLENRPRNIYGMVCYSCLLAPPNTKECVG
With B2, the binding entry in assay [6] is “no binding”; in [7], “no binding”; in assay [8], “binds”; in [9], “binds”.
